Out of some 310,000 compounds screened, about 14,000 (4.5%) showed an effect of 50% or more. The effect is printed as a negative number. This is one part of the list.
molecular target: human ether-à-go-go-related gene (hERG) potassium channel (human, UniProt Q12809); experiment: primary screen, population patch clamp on CHO cells stably expressing hERG
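Also: peak tail current of the secondary pulse compared with the same well before compound.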

human ether-à-go-go-related gene (hERG) potassium channel, sequence (Q12809 whole entry, looked up): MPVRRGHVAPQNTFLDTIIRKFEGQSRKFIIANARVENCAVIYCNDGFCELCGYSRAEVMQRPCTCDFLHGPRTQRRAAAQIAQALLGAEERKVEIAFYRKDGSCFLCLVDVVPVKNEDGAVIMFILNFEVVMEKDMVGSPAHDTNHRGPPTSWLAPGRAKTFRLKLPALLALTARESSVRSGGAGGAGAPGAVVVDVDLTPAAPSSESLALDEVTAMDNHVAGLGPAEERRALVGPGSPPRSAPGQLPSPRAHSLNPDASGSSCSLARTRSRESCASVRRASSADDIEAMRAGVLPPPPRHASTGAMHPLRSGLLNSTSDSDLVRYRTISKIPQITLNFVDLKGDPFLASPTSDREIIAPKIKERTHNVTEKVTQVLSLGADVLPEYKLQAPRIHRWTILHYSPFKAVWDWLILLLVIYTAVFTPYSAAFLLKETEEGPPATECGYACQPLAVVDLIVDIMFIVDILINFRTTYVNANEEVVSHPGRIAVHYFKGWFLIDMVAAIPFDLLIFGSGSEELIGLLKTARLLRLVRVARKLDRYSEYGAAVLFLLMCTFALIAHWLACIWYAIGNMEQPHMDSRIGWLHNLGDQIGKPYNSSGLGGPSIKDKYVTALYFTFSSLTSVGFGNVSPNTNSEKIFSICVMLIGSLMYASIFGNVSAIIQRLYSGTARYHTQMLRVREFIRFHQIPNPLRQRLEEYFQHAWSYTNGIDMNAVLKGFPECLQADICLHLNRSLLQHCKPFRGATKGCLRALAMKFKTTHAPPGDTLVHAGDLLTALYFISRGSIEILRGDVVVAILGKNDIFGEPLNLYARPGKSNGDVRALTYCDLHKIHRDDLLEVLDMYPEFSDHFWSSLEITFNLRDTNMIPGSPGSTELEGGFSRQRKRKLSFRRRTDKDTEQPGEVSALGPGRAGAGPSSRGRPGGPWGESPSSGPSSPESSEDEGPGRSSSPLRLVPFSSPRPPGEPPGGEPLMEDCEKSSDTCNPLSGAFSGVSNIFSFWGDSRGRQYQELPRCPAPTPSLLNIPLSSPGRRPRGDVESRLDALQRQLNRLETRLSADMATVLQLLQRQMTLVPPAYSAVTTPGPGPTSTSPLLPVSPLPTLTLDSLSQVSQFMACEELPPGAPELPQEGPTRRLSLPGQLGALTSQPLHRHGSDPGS

| SMILES | hERG current change (%, negative = inhibition) at 10uM [%] |
| --- | --- |
| COc1cccc(C(=O)COC(=O)C2CC3CCCC(C2)C3=O)c1 (stereo not shown) | 1.23 |
| Cc1nnc(NC(=O)C2CSC3(C)CCC(=O)N23)s1 (stereo not shown) | 1.86 |
| Nc1ccc(Cl)c(S(=O)(=O)Nc2ccccc2Cl)c1 | -5.52 |
| COC(=O)CN1CC(=O)N(c2ccccc2)C1=S | 20.1 |
| N#Cc1ccc(N/N=C/c2ccccc2)c([N+](=O)[O-])c1 | 11.1 |
| O=C(NCc1cc([N+](=O)[O-])ccc1O)c1cccnc1Sc1ccc(Cl)cc1 | 25.2 |
| COC(=O)c1ccccc1NC(=S)NC(=O)C1CC1 | -49 |
| COc1ccc(CCNc2oc(COc3ccc(Br)cc3)nc2C#N)cc1OC | -3.83 |
| COc1ccc(C(=O)COC(=O)Cc2c[nH]c3ccccc23)c(OC)c1 | 4.87 |
| O=C(O)C1CC=CCC1C(=O)Nc1ccc(Oc2ccc(Cl)cc2)cc1 (stereo not shown) | 7.55 |
| CCOc1ccc(N(CC(=O)NCCc2ccccc2)C(=O)CCC(=O)Nc2nccs2)cc1 | -18.9 |
| COc1ccc(N2C(=O)NC(=O)/C(=C/c3ccc([N+](=O)[O-])s3)C2=O)cc1 | 14.1 |
| O=C(Cc1ccc(N(CCCl)CCCl)cc1)NC(Cc1ccc(Cl)cc1)C(=O)O (stereo not shown) | 10.2 |
| CCn1c(SCC(=O)NCc2ccco2)nnc1-c1ccc(N)cc1 | 1.5 |
| CCCN1CN(c2ccccc2)C(=S)N(c2ccccc2)C1 | 15.5 |
| COCCN1C(=O)c2oc3cc(C)c(C)cc3c(=O)c2C1c1ccc(O)cc1 (stereo not shown) | 17.4 |
| O=C(N/C=C/c1ccc(Cl)cc1)NCc1ccc(Cl)cc1 | 7.66 |
| O=C(CN1CCCC1c1cccs1)Nc1cccc(S(=O)(=O)N2CCCC2)c1 (stereo not shown) | -0.843 |
| COc1cc(CCC(=O)OCC(=O)Nc2cccc(S(N)(=O)=O)c2)cc(OC)c1OC | 19.6 |
| COc1ccc(N(CC(=O)NC2CCCCC2)S(=O)(=O)c2c(C)[nH]c(=O)[nH]c2=O)cc1 | 16.2 |
| CCC1CCC2(CC1)NC(=O)N(CC(=O)Nc1cccc(S(=O)(=O)N(C)c3ccccc3)c1)C2=O (stereo not shown) | -5.29 |
| N#Cc1c2n(c3c(=O)n(Cc4ccc(Cl)cc4)cnc13)CCCC2 | -33.9 |

| SMILES | hERG current change (%, negative = inhibition) at 10uM [%] |
| --- | --- |
| C/C(=N\NC(=S)Nc1ccccc1)c1c(O)n(C)c(=O)n(C)c1=O | 22.5 |
| CCOC(=O)C1CCN(c2ccc([N+](=O)[O-])cc2)CC1 | -68.9 |
| CCOCCCNc1nc(=S)[nH]c2cc(OC)c(OC)cc12 | -5.74 |
| COc1cc(NC(=O)CSc2ccc3c(c2)OCCO3)cc(OC)c1OC | 6.48 |
| O=C(O)C(F)(F)S(=O)(=O)O | 18.6 |
| CCCCCCCc1nc2c(=O)n(C)c3ccccc3c2o1 | 4.63 |
| Cc1nc2ccccc2c(=O)n1/N=C/c1ccccc1OC(F)F | 20 |
| O=C(NNC(=O)C1CC=CCC1)c1ccccc1O (stereo not shown) | -4.58 |
| COc1ccc(NC(=O)C2CC(=O)N(c3ccccc3Cl)C2)c(OC)c1 (stereo not shown) | -6.36 |
| C(=N\N1CCOCC1)/c1nc(-c2ccccc2)n2ccccc12 | -7.67 |
| Cc1occc1C(=O)N1CCCC(CCC(=O)NCc2ccc(F)c(F)c2)C1 (stereo not shown) | -4.76 |
| O=C(Nc1nccs1)C1CCCN1/C=C/C(=O)C(F)(F)F (stereo not shown) | 13.9 |
| COc1cc2c(cc1OC)CN(CC(=O)Nc1ccccc1C(=O)NC1CC1)CC2 | -24.5 |
| CN1CCN(c2ccc(CNS(=O)(=O)c3cccc(F)c3)cc2)CC1 | -3.36 |
| CCOC(=O)C1CCN(c2ccc(C(N)=O)cc2[N+](=O)[O-])CC1 | 9.94 |
| N=C1C(c2ccccc2)=C(O)CN1c1cccc(S(N)(=O)=O)c1 | 10.1 |
| COc1cc(NC(=O)c2cc3ccccc3cc2O)c(OC)cc1Cl | 28.9 |
| OCC1(Cc2cccc(C(F)(F)F)c2)CCN(Cc2cc(F)cc(F)c2)CC1 | -43.4 |
| CCc1ccc(Nc2nnc(SCC(=O)c3c(N)n(C4CC4)c(=O)[nH]c3=O)s2)cc1 | -17.7 |
| CCn1c(SCC(N)=O)nnc1-c1ccc2c(c1)OCO2 | -0.333 |
| O=C1C2C3C=CC(C4CC34)C2C(=O)N1c1ccc2c(c1)OCO2 (stereo not shown) | 6.2 |
| CC1CC(C)CN(C(=O)c2ccc3ccccc3c2)C1 (stereo not shown) | -19.2 |

| SMILES | hERG current change (%, negative = inhibition) at 10uM [%] |
| --- | --- |
| O=S(=O)(Nc1ccc2c(c1)OCCO2)c1cccc(F)c1 | 5.23 |
| CC1CN(Cc2cc(=O)[nH]c(C(C)C)n2)CC(C)O1 (stereo not shown) | 13.4 |
| CCc1nc2ccccc2c(C(=O)OCC(=O)Nc2cccc(S(=O)(=O)NC3=NCCCCC3)c2)c1C | -3.2 |
| CC(C)=C1C2CCC1C(C(=O)Nc1sc(C)c(-c3ccc(C(C)C)cc3)c1C(N)=O)C2C(=O)O (stereo not shown) | -22.5 |
| Cc1c(NC(=O)c2cnn3c2NC(c2ccco2)CC3C(F)(F)F)c(=O)n(-c2ccccc2)n1C (stereo not shown) | 5.93 |
| CCOC(=O)NC(=O)/C(C#N)=N/Nc1ccc(F)cc1 | 2.9 |
| CC(O)c1cccc(NC2=CC(=O)CC(C)(C)C2)c1 (stereo not shown) | -9.38 |
| COc1cnc(-c2ccccc2)nc1Oc1ccccc1C | -4.2 |
| COc1ccc(OC)c(-c2nc(C(=O)NCC3CCCO3)cc3c2[nH]c2ccccc23)c1 (stereo not shown) | -59.1 |
| COc1ccc(NC(C)=O)cc1NC(=O)CSc1nnc(-c2ccncc2)n1C | 21.4 |
| Cc1oc(-c2ccc(Cl)cc2)nc1CS(=O)CC(=O)NCCCN1CC(C)CC(C)C1 (stereo not shown) | -65.5 |
| CNCC1(c2ccccc2)CCCC1.Cl | 15.1 |
| Nc1ccc(S(=O)(=O)N2CCOCCOCCOCCOCCOCC2)cc1 | 13.2 |
| Cc1cc(Cl)ccc1NS(=O)(=O)c1c(C)[nH]c(=O)[nH]c1=O | 9.93 |
| Cn1c(=O)c2cc(S(=O)(=O)NC(C(=O)Nc3cccnc3)c3ccccc3)ccc2n(C)c1=O (stereo not shown) | -0.723 |
| O=C(O)/C=C/c1cnc2ccccc2n1 | 16.6 |
| CC(C)(C)c1cc(C(=O)NN)n(Cc2ccc(Cl)cc2Cl)n1 | 12.3 |
| O=C(O[C@@H]1OC2COC(=O)c3cc(O)c(O)c(O)c3-c3c(cc(O)c(O)c3O)C(=O)O[C@@H]([C@H]1O)[C@@H]2O)c1cc(O)c(O)c(O)c1 | 13.7 |
| CC(C)N1CCC2(CC1)N=C(c1ccc3c(c1)OCO3)CC(c1cc(Cl)ccc1O)N2 (stereo not shown) | -67.1 |
| c1csc(C2Nc3ccccc3-c3nc4ccccc4n32)c1 (stereo not shown) | -24 |
| COCCCNC(=O)c1ccccc1Sc1ccc(NC(C)=O)nc1 | 25.8 |
| Cc1ccc(-n2ncc3c2CCCC3NC(=O)CCc2cnn(C)c2)cc1C (stereo not shown) | 7.27 |

| SMILES | hERG current change (%, negative = inhibition) at 10uM [%] |
| --- | --- |
| Oc1cccc2nc3ccccc3nc12 | 2.6 |
| C=CCn1c(-c2ccncc2)n[nH]c1=S | 20.1 |
| COc1ccc(NC(=O)N(Cc2ccc(C)cc2)Cc2cccnc2)c(OC)c1 | -10.6 |
| Cc1ccc(C(=O)CC(=O)COc2ccc(Cl)cc2)cc1 | 7.09 |
| CC(C)Oc1ccc(Br)cc1/C=N\NC(N)=S | -3.05 |
| Cc1c(Cc2ccccc2)c(=O)oc2c(C)c(OCc3nn[nH]n3)ccc12 | 11.3 |
| CCn1c(=O)c(C(=O)CC#N)c(N)n(Cc2ccccc2)c1=O | -4.73 |
| O=[N+]([O-])c1ccc(S(=O)(=O)NCC(c2cccnc2)N2CCOCC2)cc1 (stereo not shown) | -22 |
| O=C(CCc1nnc(CCCCc2ccccc2)o1)NCCN1CCOC1=O | 14.6 |
| CC(C)c1nc(SCC(=O)c2c[nH]c3ccccc23)n[nH]1 | 2.6 |
| COc1ccccc1NC(=O)CC(NC1CCCCC1)C(=O)O (stereo not shown) | 11.3 |
| Cn1nc(C(F)(F)F)c2cc(NC(=O)OCC(C)(C)C)sc21 | -0.844 |
| COc1ccc(C(=O)NCc2nnc(SCC(=O)NCc3ccco3)o2)cc1 | 11.3 |
| COc1ccc(C2Nc3ccccc3C(=O)N2c2ccccc2)cc1CN1CCOCC1 (stereo not shown) | -26.7 |
| Cc1cc(C)c2c(=O)[nH]c(SCC(=O)Nc3cccc(S(=O)(=O)N(C)C)c3)nc2n1 | -42.1 |
| Cc1cc(Cl)ccc1OCC(=O)OCC(=O)N1CCC(C(N)=O)CC1 | -8.07 |
| Cc1ccc2cc(C#N)c(SCc3nnc(-c4ccccc4[N+](=O)[O-])o3)nc2c1 | 4.55 |
| COc1cccc(CN(C)C(=O)CSc2nc3ccccc3[nH]2)c1OC | 3.59 |
| COc1ccccc1N(C)C(=O)c1cc(S(=O)(=O)N2CCc3ccccc32)cn1C | -37.7 |
| CN1/C(=C\C=C(/C#N)C(=O)Nc2ccc(Cl)cc2)C(C)(C)c2ccccc21 | 13 |
| COc1ccc2[nH]c(=O)c(CN(C(=O)c3cccnc3)c3ccccc3)cc2c1 | 14.8 |
| CC1Cc2ccccc2N1S(=O)(=O)c1ccc(Cl)nc1 (stereo not shown) | 4.68 |

From PMC4336329 (PLoS ONE, 2015)
